In the supplement of paper PMC11417369:
± gives the standard deviation of the averaged measurements. Some of the results follow.

What follows are sequences tested on PfAP2-I AP2 domain 3 (GST-tagged) (assay: gcPBM binding intensity (ln(normalized median fluorescence intensity)); higher = stronger DNA binding).
Method in brief: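 The binding buffer was 1× PBS containing 1% milk, 0.2 mg/ml BSA, 0.5% salmon testes DNA and 0.03% Triton X-100. In it, GST-tagged P. falciparum DNA-binding domains expressed in E. coli were applied for 1 h to an Agilent 4 × 180k array of primer-extended double-stranded 36-bp intergenic genomic probes plus negative controls. Binding intensity, read with Alexa488 anti-GST antibody and a 488 nm scan, is the highest Masliner-normalised natural-log median intensity across replicate spots of either probe orientation.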

Sequence	gcPBM binding intensity (ln)
TCTATTAATTAATATACACACATTATATATATATAT [CACACA_site8815]	9.375 ± 0.049
AATATATATATATATATATTTTTGTTAGAATATGGA [CACACA_negctrl_site212]	7.64 ± 0.28
AAATAAATAAATAGAGTGCATATATATATATATTTT	10.01 ± 0.042
CTTTTTATTTATCATACACACACAGAAAAAAAAAAA [CACACA_site7935]	8.17 ± 0.45
ATATACAAAGGATTAACACACATATTATTATAGATA [CACACA_site6966]	7.58 ± 0.46
ATTATGCACAGACACACACACACACTACTAAAAAAT [CACACA_site7252]	10 ± 0.66
ATAGGAGAAAAAGAATGTACGTATGATGTTGAAAAT [XGTACX_site7779]	8.16 ± 0.65
AATTTTTAGAAGAACACACACATATATATTATGACC [CACACA_site246]	7.75 ± 0.65
AAAAAAAATAAAAATATATATATATATATATAAATA [GTGCAC_negctrl_site676]	7.82 ± 0.53
AAGCATTTTTTTTAAAGCCTGTTCATCATCCTTACC [CACACA_negctrl_site129]	7.82 ± 0.25
TATTTATATATTTGTTGTACGTATTTATATATTCTT [XGTACX_site3622]	7.87 ± 0.41
TTATATTAATATTATATTTAAAAATAAAATATAAAT [TGCATGCA_negctrl_site79]	7.39 ± 0.11
ATTTTTATATATATCTGTACTAAAAAAAAAAAAAAA [XGTACX_site5258]	8.03 ± 0.45
AGAAGTAAAAAAATAGCACACACACTAATACCAACA [CACACA_site8354]	8.36 ± 0.45
AAACAAAAAAGAAAAACAATGAGATAAAGAAGAGAA [CACACA_negctrl_site804]	7.82 ± 0.77
TTTAATTATTTATTTTGTACATATATTATATATATA [XGTACX_site5760]	8.42 ± 0.69
AAAAGAAAAATATTCACACATATAAATAATATATAA [CACACA_site4201]	7.29 ± 0.63
ATATATACATACATATGTACATATGTAGATATATTT [XGTACX_site1230]	7.64 ± 0.42
ATTATGAAATATCGTGCACACACGAATAATATAAGA [CACACA_site1294]	10.2 ± 0.27

Sequence	gcPBM binding intensity (ln)
TATTTGTTTAAATTCACACACGTATATATATTTATA [CACACA_site5651]	7.74 ± 0.52
TACGTTTTAAAACACACACACAAAAAAAAAAAAAAA [CACACA_site3876]	8.11 ± 0.38
ATTTTTTTTGTTTATTCTTATGTGGTTATTAAATTA [CACACA_negctrl_site1000]	7.89 ± 0.79
AAAAGAGAAATGGGCACACACACACCCATTATATAT [CACACA_site1530]	7.8 ± 0.76
ACCATATAAAGTTAGGTGCATTTGTATGTATCTTAC	10.5 ± 0.44
TTATTTTGATCTGGTTGTACATATAATATATAGTGG [XGTACX_site357]	8.08 ± 0.61
TCTTGTTCGCCCTATTGTACAAACATATATTGTGAT [XGTACX_site2884]	8.32 ± 0.67
ATTAATTTGATTTTAATAAGAATATTTGTGGGGAAT [GTGCAC_negctrl_site198]	7.75 ± 0.54
TGAATAATAAAAAATACACACACATATATATATATT [CACACA_site9146]	7.58 ± 0.36
TTTTATTTTTGTTGGTCCCTCATTTAAGTTAATAAA [TGCATGCA_negctrl_site465]	8.07 ± 0.4
TTTTCAATATATATATGCTGAATTTATAATTTGTAT [CACACA_negctrl_site1774]	7.59 ± 0.32
ATATTGATTTGTGGCACACATATAATATATTCCTAT [CACACA_site3046]	8.57 ± 0.58
CCTTTTTTTTTTTTATGTACTAAAATAAAATTAGAA [XGTACX_site5956]	7.82 ± 0.35
AAATATTTATATGTTACACACTGTTTATAACTTTCT [CACACA_site6752]	7.78 ± 0.7
ATAAATGACAGACACACACACAAAAAAAAAAAACAA [CACACA_site2626]	7.75 ± 0.35
ACCCTATCTGTAACTACACACCGCATATTGTTTACT [CACACA_site5661]	8.84 ± 0.028
CTTCTGTAATTATCACGTACATATAATAATTAAAAT [XGTACX_site8973]	8.04 ± 0.22
TTTTTATCTTTGCTGTGTACATAAATAAAAATAACT [XGTACX_site7625]	8.31 ± 0.35
TTTTTTTTGATAAGTTGTACAATGATATATATCCCT [XGTACX_site3560]	7.84 ± 0.49

Sequence	gcPBM binding intensity (ln)
ATAGTTTAATTTATATGTACATATAATATTGATTTG [XGTACX_site7520]	7.89 ± 0.41
TATATTTTATATTGGTGTACAATTTTTTTTTTTTTT [XGTACX_site4291]	8.16 ± 0.33
TTACGCGCTTATTACACACACATACAAATAAGGATT [CACACA_site3486]	8.06 ± 0.47
AAAAATAAAAAAAATACATGCAATGAAACATTTATT [TGCATGCA_site263]	7.49 ± 0.81
AACAAAATAAAAAAAACATGCAAGAATTCTTATATG [TGCATGCA_site714]	7.49 ± 0.78
ATTTGTATTGTATATGCACACATAGAACACTTTTTT [CACACA_site9373]	9.35 ± 0.042
TTGTGTTTGAAAAAATGTACATGTGTCTTACAACAA [XGTACX_site8371]	8.11 ± 0.47
TTATACAGATATTTAACACACATTTTATAAAGTGCC [CACACA_site4851]	7.98 ± 0.47
ACAATTTATATTATATGTACTTAAAAAGTTCGTAAA [XGTACX_site6421]	7.71 ± 0.42
TTTTATACATAAATATGTACGTATATATAATGAATT [XGTACX_site1337]	7.84 ± 0.12
GCCTCATCGTAGCAGTGTACGTTTTTTTTTTTTTTT [XGTACX_site8648]	8.97 ± 0.41
TATATATATTTATGTACACACACACCGATAAATAAA [CACACA_site4404]	8.31 ± 0.39
TATAACATATGACACACACACATACATACACAAAAA [CACACA_site6935]	8.16 ± 0.31
ATAACAACCCAATGTTGTACATTTAAATATAACGTA [XGTACX_site7114]	7.69 ± 0.44
ATAAATAAAAACACAAAACAAAACAAAACAAAACAA [CACACA_negctrl_site1257]	7.86 ± 0.98
ATATATATTGTACTAGTGCATATATATACATATATT	9.87 ± 0.071
TTTCATCTATATGAAACACACAAAGGAAAAAAAATT [CACACA_site7869]	7.9 ± 0.69
TAATAAATGGCTAGTTGTACAGAAATATAAATATTA [XGTACX_site4579]	7.63 ± 0.4
AGATTCAAAAATAAAACATGCAAAAATAAAACGTGC [TGCATGCA_site501]	8.19 ± 0.7
